Measurements published in PubChem BioAssay AID1159614 (National Center for Advancing Translational Sciences (NCATS), 2016).
Among all 45,000 compounds or so, about 65 (0.1%) were called active. Calls follow the shape of the dose curve; as a rule, active = well fitted activation curve with a large enough effect; inconclusive = small, poorly fitted or top-dose-only effect; inactive = no such curve, though single readings can be large or run the other way. The list shows a part of the results.

Molecular target: Galactocerebrosidase (Homo sapiens) (UniProt P54803)
Chain of UniProt P54803 (P54803 whole entry, looked up): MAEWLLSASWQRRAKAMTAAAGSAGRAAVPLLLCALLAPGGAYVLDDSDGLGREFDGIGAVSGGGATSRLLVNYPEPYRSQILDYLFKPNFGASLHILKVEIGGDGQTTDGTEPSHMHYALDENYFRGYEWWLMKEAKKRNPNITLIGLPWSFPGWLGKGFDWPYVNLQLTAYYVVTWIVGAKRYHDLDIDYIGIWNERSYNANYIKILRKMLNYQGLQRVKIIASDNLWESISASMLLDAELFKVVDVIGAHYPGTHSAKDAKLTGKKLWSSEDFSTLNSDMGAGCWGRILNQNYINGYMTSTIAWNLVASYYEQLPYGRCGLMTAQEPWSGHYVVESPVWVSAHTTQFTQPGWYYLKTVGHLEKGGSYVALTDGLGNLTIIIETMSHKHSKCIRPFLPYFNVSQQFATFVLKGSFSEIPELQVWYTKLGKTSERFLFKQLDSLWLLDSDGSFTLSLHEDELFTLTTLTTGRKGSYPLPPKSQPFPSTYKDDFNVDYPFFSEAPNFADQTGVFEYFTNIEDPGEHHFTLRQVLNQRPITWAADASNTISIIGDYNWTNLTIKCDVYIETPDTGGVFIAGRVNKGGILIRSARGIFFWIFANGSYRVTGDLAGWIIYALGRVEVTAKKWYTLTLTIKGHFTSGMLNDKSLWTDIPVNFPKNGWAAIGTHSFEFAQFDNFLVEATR
Assay: A Novel Cell-Based Assay to Identify Small Molecules for B -Galactocerebrosidase; also: 0% is about no effect; nearly all actives have a fitted effect of over 65% in size
Conditions: 145M-Twi-hGALC-G270D cells (Twitcher mouse brain line with human GALC G270D), HMU-beta-Gal fluorescence, 48 h; series mostly up to 57.5 µM; activation: at the top concentration
Outline: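 Fluorescence readout: HMU-β-gal cleavage by mutant GALC (0.1 mM final, citrate/phosphate pH 5.2 with 1 mg/mL taurocholate), stopped with carbonate/bicarbonate plus Triton X-100. Cells: murine Twitcher 145M-Twi expressing human G270D GALC; qHTS for activators.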

activation, inactive:
Cc1ccc(C(C)C)c(OCC(=O)Nc2nc3c(s2)CCCC3)c1 -18.7%
CCN(CC)C(=O)c1cccc(C)c1 -19.8%
COc1ccc(S(=O)(=O)Nc2cc(-c3cn4cccc(C)c4n3)ccc2C)cc1C -24.1%
COc1ccc(NC(=O)C(C)n2nc(C)c3c(C)n(-c4ccccc4)nc3c2=O)cc1Cl (stereo not drawn) 23.9%
CCOCCCNC(=O)C(c1ccc(Cl)cc1)N(Cc1ccc2c(c1)OCO2)C(=O)c1ccccc1O (stereo not drawn) -11.9%
CCOc1ccc(C(=O)N2CCN(Cc3cc(=O)n4nc(-c5cccc(OC)c5)sc4n3)CC2)cc1 -9.29%
Cc1cccc(NC(=O)c2ccc(F)c(S(=O)(=O)N(C)C3CCCCC3)c2)c1 -9.59%
COc1ccc(N2CCN(C(=O)c3cccn4c(=O)c5ccc(Cl)cc5nc34)CC2)cc1 -16.2%
COc1ccc(-c2nc(S(=O)(=O)c3ccccc3)c(N3CCCCC3)o2)cc1 -12.3%
CCN(Cc1nc(-c2ccc(OC)cc2)oc1C)S(=O)(=O)c1ccc(Cl)cc1 -26%
Cc1ccccc1CNCCCSc1nnnn1-c1ccccc1 -9.93%
Cc1ccc2oc(=O)c3cnn(CC(=O)Nc4ccc(Br)cc4C)c3c2c1 -10.3%
CCN1C(=O)c2ccccc2Sc2ccc(NC(=O)Nc3ccc(C(C)=O)cc3)cc21 -1.73%
Cc1cc(C)c(Cn2c(C)c(CNCc3ccccc3C)c(C(=O)O)c2C)c(C)c1 -6.97%
CCc1ccccc1NC(=O)C(=O)c1cc(C)n(-c2ccccc2F)c1C -11.5%
O=C(c1ccco1)N(Cc1cccnc1)c1nc2c(F)cccc2s1 -24.8%
CC1CCCCN1C(=O)CSc1nc2ccccc2nc1Cc1ccc(Cl)cc1 (stereo not drawn) -4.38%
CCc1cccc(C)c1NC(=O)COCc1cc(-c2ccc3c(c2)OCO3)on1 -12.1%
Cc1c(CCNS(=O)(=O)c2ccccc2)sc2nc(-c3ccc(Cl)cc3)nn12 -15.2%
COC(=O)c1cc(NC(=O)c2cnc(SC)nc2-c2ccccc2)cc(C(=O)OC)c1 -5.01%
CCNc1nc2c(c(=O)n(C)c(=O)n2C)n1CC(O)COc1ccccc1 (stereo not drawn) -39.8%
O=C(CC1N=C2c3ccccc3N=C(SCc3ccc(Cl)cc3)N2C1=O)NC1CCCCC1 (stereo not drawn) -14.4%
COc1ccc(NC(=O)Nc2cccc(C)n2)c(OC)c1 -14.8%
Cc1c2cnn(CC(=O)O)c(=O)c2c(C)n1Cc1cccc(Cl)c1 -10.6%
Cc1cc2c(cc1S(=O)(=O)CCC(=O)Nc1ccc(OC(F)(F)F)cc1)OCC(=O)N2 -3.3%
Nc1c(C(=O)Nc2ccccc2Cl)nnn1Cc1cccc(Cl)c1 -20.6%
COc1cc(OC)cc(-c2nc3nc(C)c(CCC(=O)Nc4ccc(C)cc4)c(C)n3n2)c1 -0.731%
Cc1ccc(NCc2nc3ccccc3n2CCOc2ccccc2C)cc1 -7.57%
Cc1ccc(-n2ncc3c(N4CCC(C)CC4)ncnc32)cc1C -13.9%
COc1ccc(C(C(=O)NCc2ccccc2)N(C(=O)Cn2nnc3ccccc32)c2ccc(F)cc2)cc1 (stereo not drawn) -14.6%
Cc1cccc(-c2noc(CNC(=O)c3ccc(C)cc3C)n2)c1 5.72%
CCOc1ccc(S(=O)(=O)c2cn(Cc3ccc(C)cc3)c3ccc(OC)cc3c2=O)cc1 -5.59%
CCOc1ccc2cc(-c3nnc(Nc4ccccc4F)s3)c(=O)oc2c1 -9.44%
Cc1ccc(CNC(=O)COCc2cc(-c3ccc4c(c3)OCO4)on2)cc1 -1.03%
CC(=O)Oc1c(C)c(C)c2c(c1C)CC[C@@](C)(CCC[C@H](C)CCC[C@H](C)CCCC(C)C)O2 -31.2%
O=C(NCc1cccc(Br)c1)c1ccc(-n2cnc3cccnc32)cc1 -18.6%
Cc1ccc(-c2cnc(NCc3ccc(C(C)C)cc3)n2C)cc1 -26.8%
COc1ccc(NCc2nc3ccccc3n2CCOc2ccc(C)cc2)cc1 -13.1%
Cc1ccc(Cl)cc1N1CCN(C(=O)c2cn(C)c3ccc(S(=O)(=O)N4CCC(C)CC4)cc3c2=O)CC1 -17.5%
CCCOc1ccc(C(=O)N(Cc2cccs2)C2CCS(=O)(=O)C2)cc1 (stereo not drawn) 1.41%
O=C(NCC(c1ccc(Cl)cc1)N1CCCCC1)c1ccccc1 (stereo not drawn) -7.04%
Cc1cc(Cl)ccc1NC(=O)C1CCN(S(=O)(=O)c2ccc3[nH]c(=O)ccc3c2)CC1 -20.8%
COc1cccc(NC(=O)c2sc3nc(C)c(C(=O)Nc4ccc(C)cc4C)c(-c4ccc(Br)cc4)c3c2N)c1 -12.3%
COc1ccc(CNC(=O)c2cc3sccc3n2C)cc1 -10.1%
Cc1ccc2nc(SC(Cc3cc(Cl)ccc3Cl)C(=O)O)[nH]c2c1 (stereo not drawn) -15.8%
Cc1ccc(C)c(N2CCN(C(=O)C3CCN(Cc4nc(-c5cccc(Cl)c5)oc4C)CC3)CC2)c1 3.56%
NC(=O)C1(N2CCCCC2)CCN(C(=O)Nc2ccc(Cl)c(Cl)c2)CC1 -13.9%
O=C(CCOc1ccccc1)N(Cc1cccnc1)c1nc2c(Cl)cccc2s1 -2.1%
CCOC(=O)c1cc(-c2ccccc2)nn1Cc1ccccc1 -12.7%
Cc1ccc(C2c3[nH]c4ccccc4c3CCN2C(=O)c2ccc(N(C)C)cc2)cc1 (stereo not drawn) -13.7%
Cc1ccc(CCNC(=O)CCSCc2ccccc2F)cc1 -1.37%
Cc1cccc(Cn2c(=O)n(CCc3ccccc3)c(=O)c3sc4ccccc4c32)c1 -12.3%
CC(C)NC(=O)c1cnc2sc(N3CCCCCC3)nn2c1=O -5.7%
COc1ccc(CN(C(=O)Nc2ccccc2)c2ccccn2)cc1OC -22.4%
CCOC(=O)c1c(C)[nH]c(CCC(=O)Nc2ccc(N(CC)CC)cc2C)c1C -35.1%
Cc1ccc2oc(C(=O)Nc3c(C(=O)c4ccc(C)c(F)c4)oc4ccccc34)cc(=O)c2c1 -14.6%
O=S(=O)(Nc1c(F)cccc1F)c1ccc2c(c1)OCCO2 -19.9%
CCOC(=O)N1CCc2c(sc3c2c(=O)n(Cc2ccccc2)c(=O)n3CC(=O)Nc2ccccc2F)C1 4.18%
CCn1nnc2cc(C(=O)Nc3cccc(C(F)(F)F)c3)ccc21 -13.3%
COc1ccc(C)cc1NC(=O)C(CCSC)NS(=O)(=O)c1ccc2c(c1)oc(=O)n2C (stereo not drawn) 13.6%
Cc1ccc(S(=O)(=O)N(Cc2nc(-c3ccc(Cl)cc3)no2)C2CCCCC2)cc1 -3.06%
COc1ccc(-c2noc(-c3ccc(N4CCOCC4)c([N+](=O)[O-])c3)n2)cc1OC -15.8%
CCOCCCNC(=O)N1CCN(S(=O)(=O)c2ccc3c(ccn3C)c2)CC1 -9.48%
